Measured values taken from PubChem BioAssay AID485364 (National Center for Advancing Translational Sciences (NCATS), 2010).
The whole screen tested about 360,000 compounds, of which about 11,000 (3.1%) were called active. The shares of active, inactive and inconclusive entries below differ from those in the screen. Calls follow the shape of the dose curve; as a rule, active = well fitted inhibition curve with a large enough effect; inconclusive = small, poorly fitted or top-dose-only effect; inactive = no such curve, though single readings can be large or run the other way. No potency is given beside an inconclusive call; the fits are too rough.

Target: Schistosoma mansoni thioredoxin glutathione reductase (TGR) (UniProt Q962Y6)
Test: qHTS Assay for the Inhibitors of Schistosoma Mansoni Peroxiredoxins; also: nearly all actives have a fitted effect of over 60% in size
Conditions: purified TGR, DTNB reduction, TNB absorbance 405 nm; series mostly up to 114 µM
Summary of the method: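 Kinetic colorimetric format: TGR-catalysed, NADPH-driven DTNB reduction monitored via TNB absorbance. Enzyme dispensed at 20 nM; compound exposure 15 min at room temperature before reaction start.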
Potency is read from the fitted curve at half-maximal effect; tags tell the direction and shape of the fitted curve.

Row | SMILES | Potency
1 | CC(NC(=O)COC(=O)c1ccc([N+](=O)[O-])s1)c1ccccc1 (stereo unspecified) | inconclusive [inhibitor, partial curve]
2 | CSc1ncc(Cl)c(C(=O)Nc2sc3c(c2C(=O)NCc2ccco2)CCCC3)n1 | inconclusive [inhibitor, full curve, poor fit]
3 | CCCc1nnc(NC(=O)CCS(=O)(=O)c2ccccc2)s1 | inconclusive [inhibitor, full curve]
4 | COc1ccc(CCNC(=O)N2CCOCC2)cc1 | inconclusive [inhibitor, single point]
5 | CCOC(=O)/C(=C/C1=CC(=C/N(C)C)/C(=O)O1)C(C)=O | inconclusive [inhibitor, partial curve]
6 | CN(C)C(=O)COc1ccc(S(=O)(=O)c2ccc(OCC(=O)N(C)C)cc2)cc1 | active: 79.4 µM
7 | S=C(NCCCN1CCOCC1)Nc1ccc(-c2nc3ccccc3[nH]2)cc1 | inconclusive [inhibitor, partial curve]
8 | O=C(CCS(=O)(=O)c1cccc2nonc12)Nc1cccc(F)c1 | inactive
9 | CNCC(O)COc1ccccc1 (stereo unspecified) | inconclusive [inhibitor, partial curve]
10 | Cc1nonc1CN(C)C(=O)CC1C(=O)NCCN1Cc1ccc(F)c(F)c1 (stereo unspecified) | inconclusive [inhibitor, partial curve]
11 | O=C1CN(C(=O)CNCc2cccc(Cl)c2)c2ccccc2N1 | active: 44.7 µM
12 | COc1ccc(-n2cc(CNCCc3nc(C)cc(C)n3)c(-c3ccccc3Cl)n2)cc1 | inconclusive [inhibitor, single point]
13 | O=[N+]([O-])c1ccc(N2CCCC(C(F)(F)F)C2)c2ccncc12 (stereo unspecified) | inactive
14 | CCCN(C(=O)c1cc2c(s1)-c1c(C)cccc1OC2)c1ccc(OCC)cc1 | inactive
15 | O=C1NC(=S)SC1=C1CCCC1 | inconclusive [inhibitor, partial curve]
16 | C=CCC(CC=C)(CNC(=O)C(=O)Nc1ccc(C(=O)OCC)cc1)c1ccccc1 | inactive
17 | COc1ccc(NC(=O)c2oc3ccc(S(=O)(=O)N(C)C4CCCCC4)cc3c2C)cc1 | inactive
18 | CCN1C(=O)CC(c2ccccc2)CC1=O | inconclusive [inhibitor, single point]
19 | Cc1cc(/C=C2\C(=O)NC(=O)N(Cc3ccccc3)C2=O)c(C)n1-c1ccc(Cl)c(C(=O)O)c1 | inconclusive [inhibitor, full curve]
20 | Cc1ccc(S(=O)(=O)c2nc(S(C)(=O)=O)sc2N(C)C)cc1 | active: 25.1 µM
21 | NC(=O)c1c(NC(=O)CSc2nnc(-c3ccccc3)n2CC2CCCO2)sc2c1CCC2 (stereo unspecified) | active: 28.2 µM
22 | C=C1c2ccccc2S(=O)(=O)N(Cc2ccccc2)C1COCc1ccccc1 (stereo unspecified) | inconclusive [inhibitor, partial curve]
23 | Cc1ccc(N2C(=O)CC(Sc3ncccn3)C2=O)cc1C (stereo unspecified) | inconclusive [inhibitor, full curve, poor fit]

Row | SMILES | Potency
24 | CC1Cc2ccccc2N1C(=O)COC(=O)c1ccc(S(=O)(=O)N(C)C)cc1 (stereo unspecified) | inconclusive [inhibitor, partial curve, poor fit]
25 | CCC(CC(C)(C)O)C(=O)NNC(=S)Nc1ccccc1 (stereo unspecified) | inconclusive [inhibitor, single point]
26 | CC(C)CC(=O)NCc1ccc2[nH]c3c(c2c1)CCCC3 | inconclusive [inhibitor, partial curve]
27 | COc1ccccc1Nc1ccc(N)cc1 | inconclusive [inhibitor, partial curve]
28 | O=C(Nc1ccc(N2CCOCC2)cc1)c1cc2ccccc2o1 | inconclusive [inhibitor, partial curve]
29 | CCCC(C)C(=O)OCC(=O)Nc1ccc(Br)cc1 (stereo unspecified) | active: 44.7 µM
30 | COc1ccc(CN2CCNC(=O)C2CC(=O)N(C)Cc2ccon2)c(F)c1 (stereo unspecified) | inconclusive [inhibitor, partial curve]
31 | Cc1cnccc1CNC(=O)C1CCC(=O)N(Cc2ccc(Cl)cc2)C1 (stereo unspecified) | inconclusive [inhibitor, partial curve]
32 | Cc1cc(C)c(C(=O)COc2cccnc2[N+](=O)[O-])cc1C | active: 15.8 µM
33 | COC(=O)c1ccccc1NC(=O)Cn1c(=O)n(CCCC(=O)NCc2ccccc2OC)c(=O)c2ccccc21 | inactive
34 | COc1ccc(-c2cc(=O)oc3c4c(ccc23)OCN(Cc2cccc(OC)c2)C4)cc1 | inactive
35 | CN(C)CCNC(=O)c1sc2cccc(F)c2c1Cl | inconclusive [inhibitor, partial curve]
36 | CN(C)c1oc(-c2ccccc2[N+](=O)[O-])nc1C#N | active: 35.5 µM
37 | O=C(Nc1ccc2c(c1)nc1n2CCSC1)c1ccco1 | active: 14.1 µM
38 | CCN(CCN(C)C)C(=O)C1CCN(S(=O)(=O)c2c(C)noc2/C=C/c2ccccc2F)CC1 | inactive
39 | O=C(NC(NC(=S)Nc1ccc(Cl)c(Cl)c1)C(Cl)(Cl)Cl)c1ccco1 (stereo unspecified) | inconclusive [inhibitor, partial curve]
40 | Cc1ccc(-c2cccc(C3CC=CC4C3C(=O)N(Cc3ccccc3)C4c3cc(C)ccc3F)c2)cc1 (stereo unspecified) | inactive
41 | O=C(NC1CCCC1)c1ccc(Cl)c(S(=O)(=O)N2CCOCC2)c1 | inactive
42 | COc1ccc(C2C(C(=O)c3sc(C)nc3C)=C(O)C(=O)N2CCN2CCOCC2)cc1 (stereo unspecified) | inconclusive [inhibitor, partial curve]
43 | CC1(C)Cc2ccccc2-c2[nH]c(=S)[nH]c(=O)c21 | inactive
44 | Cc1ccc(-n2c3c(cc(C(=O)Nc4cccc(Cl)c4)c2=O)C(=O)CC(C)(C)C3)cc1 | inactive
45 | O=S(=O)(/N=C(/NC(=S)Nc1ccccc1)c1ccccc1)c1ccc(Cl)cc1 | inconclusive [inhibitor, partial curve]
46 | O=C(Cn1ccc2cc(S(=O)(=O)N3CCCCCC3)ccc21)NCCc1ccc(Cl)cc1 | inactive
